Experimental data published in patent publication US20090136503A1.

Target: TRAIL-R1 and/or TRAIL-R2 on human cancer cells
Assay: cell-based or functional assay

B1: Human chimeric CTB003 (mouse-human chimeric antibody) (antibody, human IgG1)
light: DIQMTQSSSSFSVSLGDRVTITCKASEDIYNRLAWYQQKPGNAPRLLISGATSLETGVPSRFSGSGSGKDYTLSITSLQTEDVATYYCQQYWSTPLTFGAGTKLELKRAVAAPSVDIFPPSDEQLKSGTASVVCLLNNFYPREAKVQWKVDNALQSGNSQESVTEQDSKDSTYSLSSTLTLSKADYEKHKVYACEVTHQGLSSPVTKSFNRGEC
heavy: EVHLVESGGGLVRPGGSLKLSCAASGFAFSSYDMSWVRQTPEKRLEWVAYISDGGGITYYPDTMKGRFTISRDNAKNTLSLQMSSLKSEDTAMYYCARHITMVVGPFAYWGQGTLVTVSAASTKGPSVFPLAPCSRSTSGGTAALGCLVKDYFPEPVTVSWNSGALTSGVHTFPAVLQSSGLYSLSSVVTVPSSSLGTQTYICNVNHKPSNTKVDKRV[human IgG1 Fc with A327G V412M (EU numbers) omitted here]
B1 was tested, and the IC50 (ng/ml), killing of Carov 3 cells, ATPLite cell viability was 22.5 ng/mL, the IC50 (ng/ml), killing of Colo205 cells, ATPLite cell viability was 6.6 ng/mL and the IC50 (ng/ml), killing of Du145 cells, ATPLite cell viability was 39.8 ng/mL. For the same binder, the IC50 (ng/ml), killing of H-2122 cells, ATPLite cell viability was 29.1 ng/mL, the IC50 (ng/ml), killing of MDA231 cells, ATPLite cell viability was 4.2 ng/mL and the IC50 (ng/ml), killing of MIAcap cells, ATPLite cell viability was 12.5 ng/mL.
